{
  "source": "PubChem BioAssay AID463173",
  "about": "(ICCB-Longwood Screening Facility, Harvard Medical School, 2010)",
  "note": "Out of some 52,000 compounds screened, about 1,700 (3.3%) were called active. No stated cut-off is given here; in the data, active means survival mostly below about 52% (no sharp cut-off); inactive means mostly above about 56%. The list shows a part of the results.",
  "data": [
    {"system": "Wild type", "test": "growth inhibition of S. aureus wild type versus tarO mutant, primary screen, teichoic acid synthesis inhibitors, RN4220, OD600 (AID 463173)", "conditions": "S. aureus RN4220 wild type/DeltatarO growth, OD600, 18 h, hits give low values, screened at 18.75 µg/mL (by protocol)", "values": [
      {"smiles": "CCOc1ccc(CCNC(=O)Cn2nnc(-c3ccccc3Cl)n2)cc1OCC", "survival": "inactive: 74%"},
      {"smiles": "Cc1c(C)n(Cc2ccc(F)cc2)c2ccc(C(=O)NCc3ccco3)cc12", "survival": "inactive: 82%"},
      {"smiles": "CSc1ncc(C(=O)N2CCN(c3cccc(Cl)c3)CC2)c(C)n1", "survival": "active: -3%"},
      {"smiles": "O=C(CC1C(=O)N(c2ccccc2)C(=O)N1CCc1cccs1)Nc1ccc(F)cc1", "note": "(centres undefined)", "survival": "inactive: 66%"},
      {"smiles": "O=C(CCCn1c(=O)c2cccn2c2cccnc21)NCc1ccccc1Br", "survival": "inactive: 129%"},
      {"smiles": "CSc1nc(-c2ccco2)nn1C(=O)c1ccc(C)cc1", "survival": "inactive: 108%"},
      {"smiles": "Cc1ccc(CNc2nc(-c3ccco3)nn2S(=O)(=O)c2ccc3ccccc3c2)cc1", "survival": "inactive: 122%"},
      {"smiles": "O=C(CSc1ncc(-c2ccccc2)[nH]1)Nc1ccc(Cl)cc1", "survival": "inactive: 27%"},
      {"smiles": "O=C(NCCN1CCN(c2cccc(Cl)c2)CC1)Nc1ccccc1C(F)(F)F", "survival": "inactive: 120%"},
      {"smiles": "CN(C(=O)c1ccco1)c1ccccc1C(=O)O", "survival": "inactive: 108%"},
      {"smiles": "Cc1ccc(S(=O)(=O)Nc2cc3c(cc2NCc2ccccc2)n(C)c(=O)n3C)cc1", "survival": "inactive: 76%"},
      {"smiles": "Cc1ccc2c(c1)c1nnc(SCC(=O)N3CCCCC3C)nc1n2C", "note": "(centres undefined)", "survival": "inactive: 108%"},
      {"smiles": "CCOc1cc(NC(=S)NCCCN2CCOCC2)c(OCC)cc1NC(=O)C1CC1", "survival": "inactive: 112%"},
      {"smiles": "CCOC(=O)c1sc2ccccc2c1S(=O)(=O)N1CCN(c2cccc(C)c2)C(C)C1", "note": "(centres undefined)", "survival": "inactive: 76%"},
      {"smiles": "COc1ccc2c(c1)CC(C(=O)NCCCN1CCN(c3cccc(Cl)c3)CC1)CO2", "note": "(centres undefined)", "survival": "inactive: 89%"},
      {"smiles": "O=C(Cn1c(=O)nc(-c2ccccc2)c2cc(Cl)ccc21)N1CCN(c2ccccc2F)CC1", "survival": "inactive: 69%"},
      {"smiles": "COc1ccc(CCNC(=O)c2cnn(-c3cccc(C)c3)c2C2CCN(C(=O)OC(C)(C)C)CC2)cc1OC", "survival": "inactive: 76%"},
      {"smiles": "CC(C)COc1ccc(C(=O)N2CCCCC2CCN2CCCCC2)cc1", "note": "(centres undefined)", "survival": "inactive: 83%"},
      {"smiles": "Cc1cc(NC(=O)CSc2nc(C3CCCCC3)nc3sc(C)c(C)c23)no1", "survival": "inactive: 104%"},
      {"smiles": "COc1cccc2c1ncc1c(-c3ccc(C)cc3)nn(-c3ccc(F)cc3)c12", "survival": "inactive: 66%"},
      {"smiles": "Cc1cccc(-c2nnn3c2nc(NCc2ccc4c(c2)OCO4)c2ccccc23)c1", "survival": "inactive: 102%"},
      {"smiles": "CC1Cc2ccccc2N1C(=O)CSc1nnc(CSc2ncccn2)n1C", "note": "(centres undefined)", "survival": "inactive: 105%"},
      {"smiles": "COc1ccc(OCC(=O)NCCO)cc1", "survival": "inactive: 116%"},
      {"smiles": "CC(=O)c1ccc(NC(=O)c2noc3c2CSc2ccccc2-3)cc1", "survival": "inactive: 76%"},
      {"smiles": "CN(C)c1ccc(-c2cc(-c3ccccc3)c(C#N)c(N)n2)cc1", "survival": "inactive: 108%"},
      {"smiles": "CC1CCc2sc3ncnc(NCCCN(C)C)c3c2C1", "note": "(centres undefined)", "survival": "inactive: 110%"},
      {"smiles": "CCc1cc(C(=O)Nc2sc(C)c(CC)c2C#N)no1", "survival": "inactive: 59%"},
      {"smiles": "CCc1ccc(CN2CCc3nc(N4CCN(c5ccccc5F)CC4)ncc3C2)cc1", "survival": "inactive: 53%"},
      {"smiles": "CCCCOc1cccc(C(=O)Nc2cc(NC(=O)c3ccco3)ccc2OC)c1", "survival": "inactive: 29%"},
      {"smiles": "Cc1ccc(Cl)cc1N1CCN(C(=O)c2c(C)oc3ncnc(N4CCCCC4)c23)CC1", "survival": "active: -6%"},
      {"smiles": "Cc1ccc2c(c1)-c1c(cnc3cc(-c4ccc(F)cc4)nn13)CO2", "survival": "inactive: 83%"},
      {"smiles": "CCc1ccc(C2=C(C)C(N3CCC(C(=O)NCc4ccccc4)CC3)=NS2(=O)=O)cc1", "survival": "inactive: 67%"},
      {"smiles": "Cc1ccc(CNC(=O)c2c(O)nc3cc(C)ccn3c2=O)cc1", "survival": "inactive: 88%"},
      {"smiles": "COc1ccc(-c2cnc(C)o2)cc1S(=O)(=O)Nc1c(C)cc(C)cc1C", "survival": "inactive: 78%"},
      {"smiles": "CC(c1ccccc1)n1cc2c(c1-c1ccccc1Br)c(=O)n(C)c(=O)n2C", "note": "(centres undefined)", "survival": "inactive: 87%"},
      {"smiles": "CCC(CC)N1CCN(S(=O)(=O)CC)CC1", "survival": "inactive: 95%"},
      {"smiles": "COc1cccc(NC(=O)CCc2c(C)nc3nc(CNC(=O)c4cccc(F)c4)nn3c2C)c1", "survival": "inactive: 99%"},
      {"smiles": "C#CCOc1ccc(-c2nnc(Nc3ccc(NC(C)=O)cc3)c3ccccc23)cc1", "survival": "inactive: 80%"},
      {"smiles": "Cc1oc2ccc(O)c(CN3CCCC3)c2c1C(=O)Nc1ccc(C(C)C)cc1", "survival": "inactive: 85%"},
      {"smiles": "CCSC1=C(C#N)C2(CCCCC2)C(C#N)=C(N)N1", "survival": "inactive: 120%"},
      {"smiles": "Cc1c(Cl)cccc1NC(=O)C1CCCN(c2ncnc3onc(C)c23)C1", "note": "(centres undefined)", "survival": "inactive: 60%"},
      {"smiles": "CCOC(=O)N1CCC(NC(=O)c2cnn(-c3cccc(F)c3)c2-n2cccc2)CC1", "survival": "inactive: 69%"},
      {"smiles": "O=c1c2ccccc2nc2n1CCN2", "survival": "inactive: 116%"},
      {"smiles": "O=C(NCc1ccccc1Cl)c1ccc2c(c1)N(Cc1ccccc1)C(=O)CS2", "survival": "inactive: 78%"},
      {"smiles": "NS(=O)(=O)c1ccc(CCNc2ncnc3c2cnn3-c2cccc(Cl)c2)cc1", "survival": "inactive: 74%"},
      {"smiles": "Cc1ccc(Cl)cc1N1CCN(C(=O)c2ccc3c(c2)CCN3S(=O)(=O)c2ccccc2)CC1", "survival": "inactive: 90%"},
      {"smiles": "Cc1ccc(-c2nnc(Nc3cccc(O)c3)c3ccccc23)cc1S(=O)(=O)NCC1CCCO1", "note": "(centres undefined)", "survival": "inactive: 59%"},
      {"smiles": "COc1ccc(CCC(=O)NCc2nc3cccnc3n2Cc2ccc(F)cc2)cc1", "survival": "inactive: 123%"},
      {"smiles": "CC1CCN(S(=O)(=O)c2ccc3c(c2)c(=O)c(C(=O)NC(C)c2ccccc2)cn3C)CC1", "note": "(centres undefined)", "survival": "inactive: 79%"},
      {"smiles": "CN(CC(=O)Nc1ccccc1F)S(=O)(=O)c1ccc2c(c1)c(=O)n(C)c(=O)n2C", "survival": "inactive: 132%"},
      {"smiles": "O=C(NCCc1ccccc1)c1ccc2c(c1)N(Cc1ccccc1)C(=O)c1ccccc1S2(=O)=O", "survival": "inactive: 93%"},
      {"smiles": "CCc1ccc(N2CCN(S(=O)(=O)N(C)C)CC2)cc1", "survival": "inactive: 119%"},
      {"smiles": "COc1ccc(CNC(=O)c2cc(=O)[nH]c3ccc(S(=O)(=O)N4CCCC4)cc23)c(OC)c1", "survival": "inactive: 60%"},
      {"smiles": "O=C(NCCc1ccccc1)C1CCN(Cc2cc3ccccc3n2Cc2cccc(Cl)c2)CC1", "survival": "inactive: 66%"},
      {"smiles": "CC(=O)c1cccc(NC(=O)C(CC(C)C)NS(=O)(=O)c2ccc3c(c2)CCN3C(C)=O)c1", "note": "(centres undefined)", "survival": "inactive: 117%"},
      {"smiles": "CCN(CC)S(=O)(=O)c1cccc2nsnc12", "survival": "inactive: 101%"},
      {"smiles": "CCOC(=O)CN(Cc1ccccc1)C(C(=O)NC1CCCCC1)c1ccc(OC)cc1", "note": "(centres undefined)", "survival": "inactive: 20%"},
      {"smiles": "COc1cccc(Nc2sc(C(=O)c3ccc(Cl)cc3)c(N)c2C(=O)NCc2ccc(C)cc2)c1", "survival": "inactive: 76%"},
      {"smiles": "COc1ccc(Cl)cc1NC(=O)c1ccc2c(c1)CCN2S(C)(=O)=O", "survival": "inactive: 96%"},
      {"smiles": "Cc1cc(NC(=O)CSc2nc(-c3ccccc3C)nc3c2c(=O)n(C)c(=O)n3C)no1", "survival": "inactive: 60%"},
      {"smiles": "CCOc1cc(C(=O)Nc2cccc3cccnc23)cc(OCC)c1OCC", "survival": "inactive: 23%"},
      {"smiles": "Cc1ccc(Nc2nc3ccccc3c3nnc(C)n23)c(C)c1", "survival": "inactive: 79%"},
      {"smiles": "COc1ccc(-c2cc3nc(C)c(CCC(=O)N4CCN(c5ccc(F)cc5)CC4)c(C)n3n2)c(OC)c1", "survival": "inactive: 85%"},
      {"smiles": "CCCCN(CCCC)CCNC(=O)CN1C(=O)CSc2ccc(S(=O)(=O)N3CCOCC3)cc21", "survival": "inactive: 69%"},
      {"smiles": "COc1ccccc1OCC(=O)NC1CC(=O)N(c2ccc3c(c2)OCCO3)C1", "note": "(centres undefined)", "survival": "inactive: 74%"},
      {"smiles": "CC(=O)c1cccc(Nc2cc(C)nc3nc(Cc4ccccc4)nn23)c1", "survival": "inactive: 80%"},
      {"smiles": "COc1ccc(NC(=O)c2c(C)oc3ccc(O)c(CN4CCN(Cc5ccccc5)CC4)c23)cc1Cl", "survival": "inactive: 50%"},
      {"smiles": "CCCOc1ccc(CNC(=O)c2ccc(C)c(-n3c(C)nc4cccnc43)c2)cc1", "survival": "inactive: 74%"},
      {"smiles": "Cc1oc2ncn(C)c(=O)c2c1C(=O)NCCCN1CCCCC1C", "note": "(centres undefined)", "survival": "inactive: 82%"},
      {"smiles": "CC(=O)c1cc(-c2ccc(F)cc2)n(CC(=O)NC2CCC(C)CC2)c1C", "note": "(centres undefined)", "survival": "inactive: 60%"},
      {"smiles": "CC(=O)c1cccc(NC(=O)Nc2nnc(N3CCCC3)s2)c1", "survival": "inactive: 105%"},
      {"smiles": "CCOC(=O)c1c(C)n(-c2ccccc2)c2ccc(OC(=O)c3cccc(C)c3)cc12", "survival": "inactive: 50%"},
      {"smiles": "COc1cccc(CNC(=O)c2ccc3c(=O)n4nc(Nc5ccccc5)sc4nc3c2)c1", "survival": "inactive: 75%"},
      {"smiles": "O=C(Nc1cccc(C(F)(F)F)c1)N1CC2CCCN2c2ccccc21", "note": "(centres undefined)", "survival": "inactive: 55%"},
      {"smiles": "COc1ccc(-n2nc(C(=O)Nc3ccc(Cl)cn3)c3c4ccccc4n(C)c3c2=O)cc1", "survival": "inactive: 79%"},
      {"smiles": "Cc1cccc(NC(=O)Cn2nc3c4ccccc4n(Cc4ccccc4)cc-3c2=O)c1", "survival": "inactive: 69%"},
      {"smiles": "COc1cc(OC)c(N(C)C(=O)c2cn(C3CCCC3)c(=O)c3c2c2ccccc2n3C)cc1Cl", "survival": "inactive: 69%"},
      {"smiles": "Cc1ccccc1C(=O)OCc1cc(=O)n2nc(C(C)C)sc2n1", "survival": "inactive: 68%"},
      {"smiles": "Cc1ccc(N2CCN(C(=O)c3cnn(-c4ccc(F)cc4F)c3C3CCN(C(=O)OC(C)(C)C)CC3)CC2)c(C)c1", "survival": "inactive: 119%"},
      {"smiles": "Cc1nc2cc(C(F)(F)F)ccc2n1C1CCN(CC(=O)N2CCCC2)CC1", "survival": "inactive: 111%"},
      {"smiles": "CN(Cc1ccccc1)S(=O)(=O)c1ccc2[nH]c3c(c2c1)CCCCC3", "survival": "inactive: 76%"},
      {"smiles": "CCN1CCN(C(c2ccc(C)cc2)c2c(O)cc(C)n(Cc3ccco3)c2=O)CC1", "note": "(centres undefined)", "survival": "inactive: 68%"},
      {"smiles": "CCNc1nc(Cl)nc(NC2CCCCC2)n1", "survival": "inactive: 113%"},
      {"smiles": "COc1ccc(-n2nc(C(=O)O)c(=O)n(C)c2=O)cc1", "survival": "inactive: 73%"},
      {"smiles": "CC1=C(C(=O)Nc2ccc(C)cc2C)C(c2ccc(C(=O)O)cc2)n2nc(SCc3ccccc3)nc2N1", "note": "(centres undefined)", "survival": "inactive: 64%"},
      {"smiles": "COc1ccc2[nH]c3nc(SCC(=O)NC(C)(C)C)nnc3c2c1", "survival": "inactive: 104%"},
      {"smiles": "CCOC(=O)N1CCN(C(=O)CN(C)S(=O)(=O)c2cc(Cl)ccc2Cl)CC1", "survival": "inactive: 105%"},
      {"smiles": "Cc1ccc2c(c1)c1c(c(=O)n(-c3ccccc3)c(=O)n1CC(=O)c1ccc(F)cc1)n2C", "survival": "inactive: 65%"},
      {"smiles": "Cc1ccc(OCCCC(=O)Nc2ccc3c(c2)OCO3)cc1", "survival": "inactive: 111%"}
    ]}
  ]
}
